Test results from paper PMC4336329 (PLoS ONE, 2015).
Out of some 310,000 compounds screened, about 14,000 (4.5%) showed an effect of 50% or more. The effect is printed as a negative number. The list shows a part of the results.

molecular target: human ether-à-go-go-related gene (hERG) potassium channel (human, UniProt Q12809); assay: primary screen, population patch clamp on CHO cells stably expressing hERG
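Further: peak tail current of the secondary pulse compared with the same well before compound.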

Sequence of human ether-à-go-go-related gene (hERG) potassium channel (Q12809 whole entry, looked up): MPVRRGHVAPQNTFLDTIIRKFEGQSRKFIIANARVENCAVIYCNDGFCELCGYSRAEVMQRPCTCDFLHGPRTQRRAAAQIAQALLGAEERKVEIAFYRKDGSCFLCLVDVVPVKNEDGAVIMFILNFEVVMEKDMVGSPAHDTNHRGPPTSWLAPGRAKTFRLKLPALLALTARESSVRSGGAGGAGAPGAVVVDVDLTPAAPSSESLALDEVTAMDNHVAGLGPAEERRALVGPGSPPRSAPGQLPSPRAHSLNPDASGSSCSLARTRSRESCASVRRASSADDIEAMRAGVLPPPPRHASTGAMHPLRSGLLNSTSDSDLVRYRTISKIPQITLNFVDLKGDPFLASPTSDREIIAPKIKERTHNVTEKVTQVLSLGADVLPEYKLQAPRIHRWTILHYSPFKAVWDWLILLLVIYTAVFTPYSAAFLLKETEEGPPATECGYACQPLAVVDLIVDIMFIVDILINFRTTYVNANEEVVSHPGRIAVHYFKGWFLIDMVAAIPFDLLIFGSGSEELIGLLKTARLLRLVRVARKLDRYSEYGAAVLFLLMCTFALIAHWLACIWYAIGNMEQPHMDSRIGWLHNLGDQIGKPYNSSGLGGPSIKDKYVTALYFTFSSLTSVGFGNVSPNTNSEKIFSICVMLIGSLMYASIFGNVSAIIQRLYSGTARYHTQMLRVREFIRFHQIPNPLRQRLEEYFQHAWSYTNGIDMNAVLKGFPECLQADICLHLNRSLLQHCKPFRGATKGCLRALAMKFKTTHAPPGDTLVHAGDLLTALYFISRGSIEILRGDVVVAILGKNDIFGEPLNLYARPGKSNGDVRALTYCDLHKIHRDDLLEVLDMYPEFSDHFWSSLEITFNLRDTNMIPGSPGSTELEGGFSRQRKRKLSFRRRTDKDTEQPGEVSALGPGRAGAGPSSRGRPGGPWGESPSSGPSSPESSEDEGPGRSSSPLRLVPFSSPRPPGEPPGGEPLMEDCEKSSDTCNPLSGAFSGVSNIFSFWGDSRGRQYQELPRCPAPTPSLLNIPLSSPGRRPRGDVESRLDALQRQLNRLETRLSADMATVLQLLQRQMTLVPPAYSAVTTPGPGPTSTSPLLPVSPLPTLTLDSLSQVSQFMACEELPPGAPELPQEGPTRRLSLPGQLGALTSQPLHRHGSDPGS

SMILES	hERG current change (%, negative = inhibition) at 10uM [%]
O=C(N/C=C/c1ccco1)Nc1cccc(Cl)c1	2.75
CC(=O)Nc1ccc(C(F)(F)F)cc1Cl	-9.12
COc1ccc(C)cc1NC(=O)CN1C(=O)c2ccccc2S1(=O)=O	-3.8
CC(C)Cn1c(-c2ccncc2)n[nH]c1=S	21.9
O=C1C(=O)c2ccccc2C(O)=C1CCCCl	13.2
O=C(Nc1ccccc1)Nc1ccc(F)c([N+](=O)[O-])c1	1.61
CCCCN(C)C(=O)Cn1cnc2sc(C)cc2c1=O	6.51
CCN(CC)CCN1C(=O)C(=O)/C(=C(/O)c2c(C)[nH]c(C(=O)OC)c2C)C1c1ccc(OC)cc1 (stereo not shown)	-1.24
Brc1ccc(-n2cnc(-c3ccccc3)c2)cc1	-0.438
O=C(CSc1nc2ccccc2c(=O)n1C1CC1)NCc1ccccc1	-36.1
O=C(/C=C/c1ccco1)OCc1nnc(-c2ccccc2)o1	-2.09
NC1=NS(=O)(=O)NC1c1ccc(Br)cc1 (stereo not shown)	-2.3
O=C(O)c1cccc(NS(=O)(=O)c2ccc3nnn(O)c3c2)c1	7.17
COc1cc(C2Nc3ccccc3C(=O)N2c2ccccc2)ccc1O (stereo not shown)	2.53
CCOC(=O)C(C)n1nc(-c2ccccc2)c2ccccc2c1=O (stereo not shown)	15.9
CC(C)c1ccccc1OCCCN1CCCC1.O=C(O)C(=O)O	-33.1
CCOc1ccc(NC(=O)CN(C)C(=O)c2ccc(-c3ccc(C(C)=O)cc3)o2)cc1OCC	-15.1
O=S(=O)(Nc1nc2ccccc2s1)c1cc(F)ccc1F	7.28
O=C(COC(=O)c1cc(-c2cccnc2)nc2ccccc12)Nc1ccc(F)cc1F	-18.5
CN(CC(=O)NCc1ccco1)C(=O)C1CC(=O)N(c2ccc3c(c2)OCCO3)C1 (stereo not shown)	-0.304
CC(=O)Nc1ccc(S(=O)(=O)NCC(=O)NCCCc2ccccc2)cc1	24.8
O=C(CN1CCN(S(=O)(=O)c2ccc(Cl)cc2)CC1)NCC1(N2CCOCC2)CCCCC1	-39.3

SMILES	hERG current change (%, negative = inhibition) at 10uM [%]
Cc1ccccc1-c1ccc(=O)n(CC(=O)Nc2ccc(C(=O)N3CCCC3)cc2)n1	7.48
N#C/C(=C\c1ccc(-c2ccccc2)o1)C(=O)Nn1cnnc1	1.7
O=C(CC1C(=O)NCCN1C(=O)c1ccc([N+](=O)[O-])cc1)Nc1ccc(F)cc1 (stereo not shown)	-21.8
CCOC(=O)c1ccc(N2C(=O)CC(N(C)CCc3ccc(OC)c(OC)c3)C2=O)cc1 (stereo not shown)	-4.58
COc1ccc(-c2cc(C(F)(F)F)nc(SCC(=O)NCc3cccs3)n2)cc1OC	-3.84
O=C1CN(C(=O)c2cc3ccccc3oc2=O)C(c2ccccc2)c2cc(F)ccc2N1 (stereo not shown)	-33.9
O=C(NCCc1ccccc1)c1ccc(CS(=O)Cc2ccc(Cl)cc2)o1 (stereo not shown)	-58.8
O=S(=O)(Nc1nc2c(s1)CCCC2)c1ccc(F)cc1	-21.1
O=C(Cc1ccc([N+](=O)[O-])cc1)N/N=C/c1ccco1	-15.3
COCCCNC(=O)/C=C/c1ccc(Cl)cc1	2.18
CC(C)(C#CCN1CCCCC1)OCCOC(c1ccccc1)c1ccccc1.Cl	-21.3
Cc1cc(C(=O)OCC(=O)NCCC(C)C)c2ccccc2n1	3.81
Cc1ccc(C2(C(F)(F)F)NC(=O)N3CCN=C3S2)cc1 (stereo not shown)	-39.3
Cc1ccc(NC(=O)C23CCC(C)(C(=O)[C@H]2Br)C3(C)C)cc1 (stereo partly shown)	8.95
c1ccc(-n2ncc3c2ncn2nnnc32)cc1	5.03
S=C(Nc1ccccc1Cl)N(CCCN1CCOCC1)Cc1ccco1	0.554
COc1ccc(S(=O)(=O)NC2CC3CCC2C3)cc1Cl (stereo not shown)	-10.1
CC(C)OC(=O)c1c(NC(=O)Cn2cnc([N+](=O)[O-])n2)sc2c1CCCC2	12
Cc1ccc(S(=O)(=O)N(C)S(=O)(=O)c2ccc(C#N)cc2)cc1	-27.4
CCOC(=O)COn1c(=O)c(C)[n+]([O-])c2ccccc21	9.57
Cc1cc(NC(=O)Nc2cc(F)ccc2F)no1	17.7
CCN1CCN(C(c2cccs2)C(C)NC(=S)NC2CCCCC2)CC1 (stereo not shown)	-60.8

SMILES	hERG current change (%, negative = inhibition) at 10uM [%]
O=C(CS(=O)(=O)c1ccccc1)Nc1ccc(Br)cn1	-19.8
COCCn1c(N)c(C(=O)NCC2CCCO2)c2nc3ccccc3nc21 (stereo not shown)	-7.66
Fc1ccc(C[n+]2csc3ccccc32)cc1.[Br-]	17.6
S=C1NCN(Cc2ccco2)CN1Cc1ccco1	10.4
c1ccc(-c2cc(-c3nnc4sc(-c5ccccn5)nn34)[nH]n2)cc1	1.59
COc1cc(-c2nnc(SCC(=O)c3cc(C)n(CC4CCCO4)c3C)o2)cc(OC)c1OC (stereo not shown)	-2.38
O=C(C[n+]1ccccc1)N/N=C/c1ccccc1Cl.[Cl-]	12.9
CCn1c(NC(=O)c2ccc(COc3ccc(C)cc3[N+](=O)[O-])o2)nc2ccccc21	-1.65
COc1ccc(C(N)=S)c(OC)c1	2.88
CC(C)(C)C(=O)Nc1ccc2c(c1)-c1cc(NC(=O)C(C)(C)C)ccc1C2	16.9
CC(OC(=O)c1cc(O)c2ccccc2c1O)C(=O)Nc1ccc(C(N)=O)cc1 (stereo not shown)	6.31
CCc1nnc(NC(=O)CCC(=O)N2CCCC(O)C2)s1 (stereo not shown)	16.9
O=c1c2ccccc2nnn1CSc1nnc(-c2cccs2)n1Cc1ccccc1	-62.6
CCOC(=O)c1[nH]c2cc3c(cc2c1NC(=O)CN1CCc2ccccc2C1)OCO3	-0.934
Cc1c(C(=O)NC2CCN(Cc3ccccc3)C2)oc2c(Cl)cccc12 (stereo not shown)	-71.8
Cc1ccccc1NC(=O)Cc1nnc(SCC(=O)N2CCOCC2)n1C	0.542
CC(=O)N1CCN(C(=O)CCN(c2ccccc2)S(=O)(=O)c2ccc(C)cc2)CC1	-28.5
COc1ccc(/C=C/C(=O)NC(=S)N2CCCCC2)cc1OC	18.5
CC(C)(C)C(=O)NC1CC2CCCC(C1)N2C(=O)Nc1ccccc1Cl (stereo not shown)	25.1
O=C(O)c1ccccc1SCc1cn2cc(Cl)ccc2n1	24.4
CCN(CC(=O)Nc1c(F)cccc1F)C(=O)CCOc1ccccc1	5.44
CCOc1ccccc1C(=O)Nc1ccc(C(=O)c2ccccc2)cc1	14.7

SMILES	hERG current change (%, negative = inhibition) at 10uM [%]
COc1cccc2cc(-c3n[nH]c(=S)n3C)oc12	11.6
COc1cccc(N2C(=O)CC(N3CCc4ccccc43)C2=O)c1 (stereo not shown)	13.5
CN1C(=O)NC(NC(=O)c2ccncc2)(C(F)(F)F)C1=O (stereo not shown)	22
CC(C)C(=O)Nc1cc(-c2nc3ncccc3o2)ccc1Cl	10.3
Cc1cc(C)c(-n2nnnc2SCC(=O)c2cccs2)c(C)c1	16.4
Cc1ccc(NC(=O)Cn2c(O)c(N=NC(=O)c3cc4ccccc4cc3O)c3ccccc32)cc1	5.36
CCOC(=O)c1cc(-c2ccc(Cl)cc2)nc2c1c(=O)[nH]c(=O)n2CCOC	-28.3
CC(=O)c1ccc(N2CCN(C(=O)c3ccc4c(=O)n(-c5ccccc5)c(=O)[nH]c4c3)CC2)cc1	7.56
C/C(=N\NC(=S)NCCc1ccccc1)c1ccc(Cl)cc1Cl	4.41
CCOC(=O)N1CCN(C(=O)COc2cccc3c2CCN(Cc2ccccc2C)C3=O)CC1	-40.7
CCN1CCN(C(=O)c2ccc(S(=O)(=O)Nc3ccccc3)cc2)CC1.Cl	12.7
Cc1ccc(C)n1-c1ccc2c(c1)COC2=O	-8.86
O=C(CN1CCCC1)Nc1c(C(=O)C2CC2)oc2ccccc12	-9.92
COc1ccc(Cn2nnnc2C(c2ccncc2)N2CCOCC2)cc1 (stereo not shown)	-20.7
O=C(NCC1COc2ccccc2O1)c1ccc(NC(=O)C(c2ccccc2)c2ccccc2)cc1 (stereo not shown)	14
COC(=O)c1cn(NC(=O)C2COc3ccccc3O2)c(=O)c2ccccc12 (stereo not shown)	15
CC(C)CC(NC(=O)C1CCC(C)CC1)C(=O)Nc1ccc2c(c1)OCCO2 (stereo not shown)	3.49
O=C(NCCC(=O)N1CCN(c2ccccc2O)CC1)c1ccc(Br)cc1	-13.3
O=C(c1ccc(Cl)c(Cl)c1)N1CCC(O)(CN2CCOCC2)CC1	-9.37
COc1cccc(CN2CCNC(=O)C2CC(=O)NCc2cn3ccc(C)cc3n2)c1OC (stereo not shown)	23
COc1ccc(-n2nnnc2CNC(=O)C2CC(=O)N(c3ccc(Cl)cc3)C2)cc1 (stereo not shown)	-45.9
Cc1ccc(-c2nnn(CC(=O)N3CCCCC3)n2)o1	-14.3
